# Laboratory results reported in the supplement of paper PMC11417369.
# This is one part of the list.
# Test system: PF3D7_0420300 AP2 domain 1 (GST-tagged)
# Assay: gcPBM binding intensity (ln(normalized median fluorescence intensity)); higher = stronger DNA binding
# Outline: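 DNA-binding domains from P. falciparum, fused to GST and produced in E. coli, were put on an Agilent 4 × 180k double-stranded probe array for 1 h in 1× PBS holding 1% milk, 0.2 mg/ml BSA, 0.5% salmon testes DNA and 0.03% Triton X-100. Probes were primer-extended, 36 bp long and drawn from intergenic genomic regions, with negative controls included. After Alexa488 anti-GST antibody detection and a 488 nm scan, binding intensity was set as the highest Masliner-normalised natural-log median intensity across replicate spots of either probe orientation.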
row,Sequence,gcPBM binding intensity (ln)
1,TTTAATAAAATTCTAGTGCAAAAAGGAAAAAACAAA [GTGCAC_site9642],9.39
2,AATATATAGGAAAAAGTGCAATAAATGAACAAAATA,9.71
3,AAAAGAAATGACAAATTGGATAGATAATAGGGGGTA [GTGCAC_negctrl_site262],9.72
4,AATTTTGATATATATTGTACGCATTTTTAAATGCCA [XGTACX_site7694],9.06
5,TTATTTACTTATTGCACACATATAAAATATATTTAT [CACACA_site3101],9.44
6,GAAGTTTTTTAAAGATGTACTTTTTAAAAATAATGT [XGTACX_site1975],8.91
7,TTCTTAATTTAAAATTGTACTTAAGTAATACTTATG [XGTACX_site3928],8.97
8,AAAAAAAAAAAAAATACACACATATATAAATAAATA [CACACA_site6459],9.68
9,AAGAACTCATTAATAATGTAATATTTTATAATTTAG [CACACA_negctrl_site321],8.92
10,ATAATAAAACTCAAAGTGCATTAGAATAATTGTAAA,9.42
11,ATTCATAAATATATTTGTACATATTATATATAAATA [XGTACX_site1907],9.09
12,TAATATATAACGTGCACACACACATTTACGTATGAA [CACACA_site1832],9.79
13,TATACATATTTCTATTGTACATAAACTAAATCTTCA [XGTACX_site28],8.87
14,ACAATAAATATGTGGTTGCACTTATAATATATTTAT,9.27
15,GATATTATTGCATATTTACACACGTACTAATTTAAA [CACACA_site8231],9.72
16,TACAATTGTAAAGGCGCACACATATATATATATATA [CACACA_site1392],9.56
17,TTTTTATAATAAAAAAATATAACTATATTAAGCCAC [CACACA_negctrl_site555],9.11
18,CACAGTGATATAAAAACACACATGAATTAAAATTTC [CACACA_site4999],9.33
19,TATTTTTATCAATTCACACATAAATATATTTATATG [CACACA_site5547],9.19
20,CATACATACAGACACACACACATATTTATATTTATA [CACACA_site6172],9.94
21,TCCCTTAATTTTGTGTGTACATATAATATATTTTTA [XGTACX_site2789],9.63
22,GTTAATTATTAAATTTGTACTCATATATATTATATA [XGTACX_site6862],9.37
23,ACACAATAAACATTATGTACATATAATGTTCTGTGT [XGTACX_site3381],9.38

row,Sequence,gcPBM binding intensity (ln)
1,AATGATAATCTATTATGTACACATATATTCTTATGT [XGTACX_site4148],9.27
2,TATACATATGTATGCACACATACATACCCATATAAT [CACACA_site5842],9.32
3,CTATATATAAAATATTGTACTTATTTTTATTACATC [XGTACX_site3963],9.11
4,TTTTCTCAATTTTGGTGTACTTTTTTCTTAACACAT [XGTACX_site8918],9.49
5,TATTTAAAATATTAAATTTGTAAAGTTCGAGGGAAG [GTGCAC_negctrl_site337],9.1
6,GAAAAAAAAATATCTTGTACTTACATAACTATTGGT [XGTACX_site5326],9.13
7,AAAGGTTTATCTGATACACACATAAGTGATCAGGTT [CACACA_site6233],9.28
8,TAAATTAAAAAACATAAACTATTGGAAACGCATTGA [CACACA_negctrl_site935],9.46
9,AATTAATAAAAAAGGTGTACAGTAAATGCAATAATC [XGTACX_site7956],9.76
10,TCTTTTATATATAATAATTATATATAACATTCAAAC [GTGCAC_negctrl_site112],9.14
11,GTTAATCACCATGTGGTGCATATAAGGGCATATTAT [GTGCAC_site9748],9.22
12,CCTTATACGATATTATGTACGCATATGTGCATTTTT [XGTACX_site1570],9.35
13,ATAAATTCATACATTTGTACACAAAAAAAAAAAAAA [XGTACX_site2435],9.06
14,ATATATATATATTTATGTACATATTATTTATTCTTT [XGTACX_site6567],9.38
15,TAATGGTATAAAAAATGTACATGTTTTTTTACAATT [XGTACX_site4285],9.15
16,ATTATTTGATTAAAGGTGCAAGGATAATAATAAAAC,9.59
17,TATATTTACTTATATGCACACATAAATGTGAATTAT [CACACA_site9258],9.23
18,TATTATATAATATACTGTACAATATCCATTATTTAC [XGTACX_site7091],9.3
19,ACATATAATAAAATAGTGCATTGTTAGTTTTATATA,9.26
20,TTTTTTAAAGTTTAAAGTACATATAAAAATATATAA [XGTACX_site5267],8.81
21,CTTAAAATATATTTAGTGCATATACTAATATATTAT,9.13
22,TATATATATATATTATGTACATATATAAATTAACAT [XGTACX_site3368],9.2
